Data from the supplement of paper PMC4967469.

Tests used:
Experiment in all cases: Viability of human cancer cell lines after 72 h of drug (GDSC screen)
BMX-IN-1 (QL-XII-61) = compound: C=CC(=O)Nc1cc(-n2c(=O)ccc3cnc4ccc(-c5ccc(NS(C)(=O)=O)cc5)cc4c32)ccc1C [BMX-IN-1 (QL-XII-61)]; conditions: top dose 10 µM; top dose inferred
Procedure: (§1)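 Human cancer cell lines in 384-well plates, medium with 10% serum, drug for 72 h over a 256-fold dose range (nine 2-fold or five 4-fold steps up to the top dose). Adherent lines were fixed and stained with the nucleic acid dye Syto60, suspension lines read with resazurin; signal relative to control wells, capped at 0 and 100%. One two-parameter sigmoid per drug and line, fitted in a mixed model over all curves with the slope shared within a line.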

17-AAG = compound: C=CCNC1=C2C[C@@H](C)C[C@H](OC)[C@H](O)[C@@H](C)/C=C(\C)[C@H](OC(N)=O)[C@@H](OC)/C=C\C=C(/C)C(=O)NC(=CC1=O)C2=O [17-AAG]; conditions: top dose 1 µM
Procedure: as §1

CCT018159 = compound: CCc1cc(-c2n[nH]c(C)c2-c2ccc3c(c2)OCCO3)c(O)cc1O [CCT018159]; conditions: top dose 10 µM; top dose inferred
Procedure: as §1

BIX02189 = compound: CN(C)Cc1cccc(N=C(c2ccccc2)c2c(O)[nH]c3cc(C(=O)N(C)C)ccc23)c1 [BIX02189]; conditions: top dose 20 µM; top dose inferred
Procedure: as §1

OSI-027 = compound: COc1cccc2cc(-c3nc([C@H]4CC[C@H](C(=O)O)CC4)n4ncnc(N)c34)[nH]c12 [OSI-027]; conditions: top dose 20 µM
Procedure: as §1

Vismodegib = compound: CS(=O)(=O)c1ccc(C(=O)Nc2ccc(Cl)c(-c3ccccn3)c2)c(Cl)c1 [Vismodegib]; conditions: top dose 10 µM; top dose inferred
Procedure: as §1

VX-11e = compound: Cc1cnc(Nc2ccc(F)cc2Cl)nc1-c1c[nH]c(C(=O)N[C@H](CO)c2cccc(Cl)c2)c1 [VX-11e]; conditions: top dose 5.12 µM; top dose inferred
Procedure: as §1

TG101348 = compound: Cc1cnc(Nc2ccc(OCCN3CCCC3)cc2)nc1Nc1cccc(S(=O)(=O)NC(C)(C)C)c1 [TG101348]; conditions: top dose 10.24 µM
Procedure: as §1

UNC1215 = compound: O=C(c1ccc(C(=O)N2CCC(N3CCCC3)CC2)c(Nc2ccccc2)c1)N1CCC(N2CCCC2)CC1 [UNC1215]; conditions: top dose 1 µM; top dose inferred
Procedure: as §1

Cell Line | AUC (BMX-IN-1 (QL-XII-61)) | IC50 (BMX-IN-1 (QL-XII-61)) [µM] | AUC (17-AAG) | IC50 (17-AAG) [µM] | AUC (CCT018159) | IC50 (CCT018159) [µM] | AUC (BIX02189) | IC50 (BIX02189) [µM] | AUC (OSI-027) | IC50 (OSI-027) [µM] | AUC (Vismodegib) | IC50 (Vismodegib) [µM] | AUC (VX-11e) | IC50 (VX-11e) [µM] | AUC (TG101348) | IC50 (TG101348) [µM] | AUC (UNC1215) | IC50 (UNC1215) [µM]
OV-17R (ovary, adherent) | 0.976 | > 10 | 0.96 | > 1 | 0.981 | > 10 | 0.935 | > 20 | 0.42 | 0.691 | 0.981 | > 10 | 0.953 | > 5.12 | 0.751 | 4.64 | 0.978 | > 1
OV-56 (ovary, adherent) | 0.979 | > 10 | 0.603 | 0.118 | 0.92 | > 10 | 0.975 | > 20 | 0.728 | 5.38 | 0.961 | > 10 | 0.98 | > 5.12 | 0.949 | > 10.2 | 0.988 | > 1
OVCA420 (ovary, adherent) | 0.979 | > 10 | 0.732 | 0.365 | 0.974 | > 10 | 0.922 | > 20 | 0.898 | > 20 | 0.982 | > 10 | 0.927 | > 5.12 | 0.969 | > 10.2 | 0.975 | > 1
OVCA433 (ovary, adherent) | 0.575 | 1.03 | 0.525 | 0.0738 | 0.913 | > 10 | 0.957 | > 20 | 0.791 | 10.1 | 0.985 | > 10 | 0.979 | > 5.12 | 0.888 | > 10.2 | 0.975 | > 1
OVK-18 (ovary, adherent) | 0.819 | 6.47 | 0.586 | 0.111 | 0.917 | > 10 | 0.971 | > 20 | 0.83 | 14.5 | 0.944 | > 10 | 0.906 | > 5.12 | 0.985 | > 10.2 | 0.983 | > 1
PEO1 (ovary, adherent) | 0.919 | > 10 | 0.757 | 0.358 | 0.928 | > 10 | 0.946 | > 20 | 0.981 | > 20 | 0.987 | > 10 | 0.902 | > 5.12 | 0.987 | > 10.2 | 0.985 | > 1
QGP-1 (pancreas, adherent) | 0.977 | > 10 | 0.974 | > 1 | 0.967 | > 10 | 0.902 | > 20 | 0.66 | 4.59 | 0.938 | > 10 | 0.748 | 2.64 | 0.844 | > 10.2 | 0.977 | > 1
RCC-AB (kidney, adherent) | 0.978 | > 10 | 0.849 | > 1 | 0.954 | > 10 | 0.885 | > 20 | 0.176 | 0.092 | 0.973 | > 10 | 0.855 | > 5.12 | 0.715 | 3.18 | 0.978 | > 1
RCC-FG2 (kidney, adherent) | 0.979 | > 10 | 0.782 | 0.546 | 0.955 | > 10 | 0.908 | > 20 | 0.456 | 0.916 | 0.981 | > 10 | 0.959 | > 5.12 | 0.725 | 3.37 | 0.958 | > 1
RCC-JF (kidney, adherent) | 0.97 | > 10 | 0.492 | 0.0593 | 0.891 | > 10 | 0.903 | > 20 | 0.267 | 0.246 | 0.967 | > 10 | 0.925 | > 5.12 | 0.695 | 2.43 | 0.981 | > 1
RCC-JW (kidney, adherent) | 0.678 | 1.99 | 0.631 | 0.146 | 0.917 | > 10 | 0.957 | > 20 | 0.139 | 0.0888 | 0.986 | > 10 | 0.986 | > 5.12 | 0.67 | 1.93 | 0.984 | > 1
RCC-MF (kidney, adherent) | 0.965 | > 10 | 0.852 | > 1 | 0.98 | > 10 | 0.895 | > 20 | 0.153 | < 0.0781 | 0.952 | > 10 | 0.91 | > 5.12 | 0.734 | 3.7 | 0.975 | > 1
SK-GT-4 (oesophagus, adherent) | 0.958 | > 10 | 0.466 | 0.0494 | 0.852 | > 10 | 0.982 | > 20 | 0.415 | 0.692 | 0.976 | > 10 | 0.914 | > 5.12 | 0.811 | 7.13 | 0.977 | > 1
SK-MEL-5 (melanoma, adherent) | 0.971 | > 10 | 0.836 | 0.888 | 0.975 | > 10 | 0.982 | > 20 | 0.509 | 1.33 | 0.97 | > 10 | 0.97 | > 5.12 | 0.903 | > 10.2 | 0.977 | > 1

By IC50 is meant the dose at which the fit gives 50% viability; a limit (>, <) means that the fit lies beyond the doses tested. AUC, from the same fit, is the share of area under the viability curve across the 256-fold dose range; values near 1 show little effect. For part of these data: A top dose marked as inferred comes from the curve model; the source does not state it.
